# Reference: PubChem BioAssay AID588342 (National Center for Advancing Translational Sciences (NCATS), 2011)
# The whole screen tested about 360,000 compounds, of which about 25,000 (6.9%) were called active. The shares of active, inactive and inconclusive entries below differ from those in the screen. The call rests on the fitted dose curve; in most records, active means well fitted inhibition curve with a large enough effect; inconclusive means small, poorly fitted or top-dose-only effect; inactive means flat fitted curve, though single readings scatter. Potencies of inconclusive entries are doubtful fits and often do not repeat.
# Molecular target: Luciferin 4-monooxygenase (Photinus pyralis) (UniProt P08659)
# UniProt P08659, sequence (P08659 whole entry, looked up): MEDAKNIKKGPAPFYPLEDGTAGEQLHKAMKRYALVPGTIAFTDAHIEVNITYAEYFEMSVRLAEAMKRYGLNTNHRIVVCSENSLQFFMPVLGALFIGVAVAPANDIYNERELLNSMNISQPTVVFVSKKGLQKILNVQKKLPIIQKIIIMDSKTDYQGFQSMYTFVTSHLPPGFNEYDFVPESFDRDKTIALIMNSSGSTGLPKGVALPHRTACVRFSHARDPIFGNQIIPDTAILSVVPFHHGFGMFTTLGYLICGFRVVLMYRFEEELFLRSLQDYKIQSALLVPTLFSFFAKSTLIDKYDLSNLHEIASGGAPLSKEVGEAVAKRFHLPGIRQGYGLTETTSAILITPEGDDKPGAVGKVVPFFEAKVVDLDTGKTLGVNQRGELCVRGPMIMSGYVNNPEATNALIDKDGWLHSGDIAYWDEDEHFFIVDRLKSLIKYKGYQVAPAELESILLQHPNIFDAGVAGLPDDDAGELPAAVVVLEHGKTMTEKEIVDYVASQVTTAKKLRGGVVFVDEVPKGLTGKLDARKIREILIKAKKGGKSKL
# Assay: qHTS profiling assay for firefly luciferase inhibitor/activator using purifed enzyme and Km concentrations of substrates (counterscreen for miR-21 project); further: nearly all actives have a fitted effect of over 55% in size;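 on activity change, negative = inhibition: plate controls were vehicle for no effect and reference inhibitor for full effect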
# Conditions: purified FLuc, luminescence inhibition; activity change, negative = inhibition: at 57.5 µM (top of the series)
# Summary of the method: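 Purified P. pyralis luciferase, 10 nM final, with Km-level 10 uM D-luciferin and 10 uM ATP in 50 mM Tris acetate pH 7.5, 10 mM Mg acetate, 0.01% Tween-20, 0.05% BSA; 6-point qHTS titration about 60 µM downward; luminescence read.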
# Potency means the concentration at half of the fitted maximal effect; tags describe the fitted curve by direction and shape.
Compound,Potency,"activity change, negative = inhibition"
Cc1nn(-c2ccccc2)nc1C(=O)NNC(=O)c1ccc(C(F)(F)F)cc1,"inconclusive: 21.3 µM [inhibitor, single point]",
Brc1ccc(-c2noc(-c3ccccn3)n2)o1,active: 2.69 µM,
COc1ccccc1NC(=O)c1cc2c(=O)n(Cc3cccs3)ccc2nc1C,,inactive: -4.43%
CC(=O)Oc1ccc(C(=O)Nc2ccccc2C(=O)NCC(C)C)cc1,"inconclusive: 23.9 µM [inhibitor, single point]",
CNS(=O)(=O)c1cccc(C(=O)OCc2csc(-c3ccccc3)n2)c1,"inconclusive: 21.3 µM [inhibitor, single point]",
N#CCCN(C(=O)CSc1ncccn1)c1ccc2c(c1)OCCO2,,inactive: 2.9%
NC(=O)c1ccccc1NC(=O)c1ccccc1F,"inconclusive: 21.3 µM [inhibitor, partial curve, poor fit]",
Cc1cccc(OCCC(=O)Nc2ccc(C)c(S(=O)(=O)N3CCCCC3)c2)c1,,inactive: 1.08%
CN1CCN(CC(=O)Nc2nc(-c3c[nH]c4ccccc34)cs2)CC1,"inconclusive: 26.9 µM [inhibitor, single point]",
O=C(Nc1ccccc1F)c1cnc(N2CCCCC2)c2ccccc12,"inconclusive: 26.9 µM [inhibitor, partial curve, poor fit]",
CCOc1ccc2nc(N3CCCC(C(=O)NCCCN4CCOCC4)C3)sc2c1 (stereo not drawn),active: 13.5 µM,
Cc1ccc(NC(=O)c2ccn(C(=O)Nc3ccccc3)n2)c(C)c1,"inconclusive: 30.1 µM [inhibitor, single point]",
Cc1nnc(NC(=O)c2ccc(N3CCCC3=O)cc2)s1,active: 23.9 µM,
CCN(CC)c1ccc(C(=O)NN)cc1,,inactive: -3.78%
COC(=O)c1c(NC(=O)c2ccc(Cl)c(Cl)c2)sc2c1CCCC2,,inactive: 1.82%
CCC1CCCCN1C(=O)CCc1nnc(C2CCCCC2)o1 (stereo not drawn),"inconclusive: 23.9 µM [inhibitor, partial curve]",
COc1ccc2c(c1)c1ncn(Cc3ccco3)c(=O)c1n2C,"inconclusive: 21.3 µM [inhibitor, partial curve, poor fit]",
Cc1cccc(OCCn2cc(/C=N/NC(=O)c3ccncc3)c3ccccc32)c1,"inconclusive: 26.9 µM [inhibitor, single point]",
COc1ccc(-c2onc(C)c2C)cc1S(=O)(=O)NCc1cccs1,,inactive: 2.14%

Compound,Potency,"activity change, negative = inhibition"
CCN1CCN(c2ccc(NC(=O)c3cnccn3)cc2)CC1,"inconclusive: 16.9 µM [inhibitor, partial curve]",
CSc1sc(C(=O)Nc2ccc(F)cc2F)c2c1C=CCC2,"inconclusive: 30.1 µM [inhibitor, single point]",
Cc1cccc(-n2c(C)nc3cc(C(=O)N4CCOCC4)ccc32)c1,,inactive: -2.4%
Cc1ccc2oc(-c3ccccc3)nc2c1,active: 0.601 µM,
CCOc1ccc2nc(NC(=O)CCn3cccc3)sc2c1,"inconclusive: 10.7 µM [inhibitor, partial curve, poor fit]",
O=C(Nc1cccc(-n2cccn2)c1)C1CCCN(Cc2cc3ccccc3[nH]2)C1 (stereo not drawn),"inconclusive: 23.9 µM [inhibitor, partial curve, poor fit]",
Cc1c2c(nc3ccccc13)CCC(C)C2 (stereo not drawn),"inconclusive: 30.1 µM [inhibitor, partial curve]",
O=C(COC(=O)/C=C/C(=O)N1CCN(c2ccccc2)CC1)NCc1ccc(F)cc1,"inconclusive: 30.1 µM [inhibitor, single point]",
Cc1cc(C(=O)CSc2nnnn2C)c(C)n1C1CC1,"inconclusive: 26.9 µM [inhibitor, partial curve]",
CC(C)CCOc1cccc(OCC(=O)Nc2ccncc2)c1,,inactive: -18%
Cc1cc(C)nc(SCc2cn3ccccc3n2)n1,"inconclusive: 37.9 µM [inhibitor, partial curve, poor fit]",
COC(=O)c1cc(NC(=O)Cc2coc3cc(OC)ccc23)cc(C(=O)OC)c1,,inactive: -12.3%
CN(C)c1ccc(CN(C(=O)/C=C/c2ccccc2Cl)C2CCS(=O)(=O)C2)cc1 (stereo not drawn),"inconclusive: 26.9 µM [inhibitor, partial curve, poor fit]",
CCOC(=O)Cc1csc(NC(=S)NC(=O)c2ccccc2Br)n1,active: 21.3 µM,
CC1(C)CC(NC(=O)COc2ccccc2Cl)CC(C)(C)N1,"inconclusive: 26.9 µM [inhibitor, partial curve]",
O=c1[nH]cc(S(=O)(=O)N2CCCc3ccccc32)c(=O)[nH]1,,inactive: 1.66%
Cc1ccc(-n2ncc(C(=O)Nc3ccc4c(c3)OCCO4)c2C2CCN(C(=O)OC(C)(C)C)CC2)cc1C,"inconclusive: 15.1 µM [inhibitor, partial curve]",
CCCCNC(=S)NNC(=O)c1cc(-c2cccnc2)nc2ccccc12,active: 15.1 µM,
Fc1ccccc1OCCSc1nnnn1-c1ccccc1,active: 3.01 µM,
